Consider one molecule from patent publication US20220047729A1 (ALBERT EINSTEIN COLLEGE OF MEDICINE, published 2022).

The target of assay [1] is T1, recombinant hPD-L1 hIgG1 Fc-fusion protein (R&D Systems) (human, UniProt Q9NZQ7 partial chain).
T1 construct: Bought from R&D Systems; also called hPD-L1 Fc-fusion protein; not shown: human IgG1 Fc
As to the kind of experiment: flow cytometry, HEK 293 cells displaying the PD-1 construct, one dose of hPD-L1 Fc fusion; the reference itself.

Assay [2] addresses T2, recombinant hPD-L2 hIgG1 Fc-fusion protein (R&D Systems) (human, UniProt Q9BQ51 20-219).
T2 construct: Bought from R&D Systems; also called hPD-L2 Fc-fusion protein; not shown: human IgG1 Fc
T2 sequence (looked up): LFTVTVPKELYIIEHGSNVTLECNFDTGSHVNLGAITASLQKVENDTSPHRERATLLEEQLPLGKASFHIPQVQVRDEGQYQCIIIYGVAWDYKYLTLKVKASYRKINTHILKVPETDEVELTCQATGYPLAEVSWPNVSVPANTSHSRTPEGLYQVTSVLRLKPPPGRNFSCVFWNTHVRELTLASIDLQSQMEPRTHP
The assay is described as follows: flow cytometry, HEK 293 cells displaying the PD-1 construct, one dose of hPD-L2 Fc fusion; the reference itself.

T1 sequence (Q9NZQ7 19-239 limits assumed): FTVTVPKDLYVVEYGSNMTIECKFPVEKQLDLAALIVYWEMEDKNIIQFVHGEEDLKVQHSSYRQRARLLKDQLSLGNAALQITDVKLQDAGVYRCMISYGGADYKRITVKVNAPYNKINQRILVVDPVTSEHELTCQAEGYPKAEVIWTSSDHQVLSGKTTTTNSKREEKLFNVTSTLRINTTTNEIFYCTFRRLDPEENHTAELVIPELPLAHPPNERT

B1: wild-type human PD-1 ectodomain (Leu 25-Thr 168) displayed on HEK 293 cells (hPD-1 Type I mCherry) (receptor)
chain: not shown
notes: also called WT; wild type PD-1; not shown: mCherry fluorescent protein at the C-terminus
B1: in assay [1], the “average binding normalized to wild type (AVE-hPD-L1)” value is 1 relative to wild type. In addition, the “average binding normalized to wild type (AVE-hPD-L2)” value in assay [2] was 1 relative to wild type.
